In PubChem BioAssay AID1745845 (National Center for Advancing Translational Sciences (NCATS), 2022):
The campaign covered roughly 360,000 compounds. About 2,600 (0.72%) were called active. Inconclusive results, whose numbers are uncertain, are shown with a selection of clear calls. Calls come from the whole dose curve; as a rule, active = well fitted inhibition curve with a large enough effect; inconclusive = small, poorly fitted or top-dose-only effect; inactive = no such curve, though single readings can be large or run the other way. Where the call is inconclusive, the potency comes from a doubtful curve fit.

Experiment: Primary qHTS for Inhibitors of ATXN expression; note: nearly all actives have a fitted effect of over 55% in size
Conditions: HEK-293 ATXN2-luciferase reporter, luminescence, 24 h; activity change, negative = inhibition: at 57 µM (top of the series)
In short: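 qHTS (up to 57 uM final) was run with 24 h compound exposure of reporter cells at 37 °C. Each well was multiplexed: SteadyGlo luminescence measured ATXN2-luciferase expression after a fluorogenic Gly-Phe-AFC viability readout (25 uM final).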
% is set by controls: 0 for no effect and ±100 for the full control effect; potency is the fitted concentration of half-maximal effect; tags give direction and shape of the fitted curve.

Row | Compound | Potency | activity change, negative = inhibition
1 | N#CC1C(=O)c2ccccc2C1c1ccccc1 (stereo not given) | inconclusive: 33.6 µM [inhibitor, single point] | –
2 | CCCCn1nnnc1C(c1ccccc1)N1CCN(c2ccc(C(F)(F)F)cn2)CC1 (stereo not given) | – | inactive: -18.4%
3 | CC(=O)Oc1ccccc1/C=C/c1nc2ccccc2c(=O)o1 | inconclusive: 10 µM [inhibitor, partial curve, poor fit] | –
4 | CCOc1ccccc1C(=O)Nc1ccc(S(=O)(=O)N2CCN(C)CC2)cc1 | – | inactive: -8.66%
5 | CCOC(=O)C1CCN(C(=O)c2cccc(S(=O)(=O)Nc3ccc(C)cc3C)c2)CC1 | inconclusive: 15 µM [inhibitor, single point] | –
6 | N#C/C(=C\c1cccs1)C(=O)c1ccccc1Cl | inconclusive: 37.7 µM [inhibitor, single point] | –
7 | CCOc1ccc(NC(=O)c2cc3cc(C)ccc3n2C)cc1 | – | inactive: 5.77%
8 | CCOc1ccc(NCc2nnc(SCC(=O)Nc3cc(C)on3)n2-c2ccccc2OC)cc1 | inconclusive: 35.5 µM [inhibitor, partial curve, poor fit] | –
9 | CC(NNC(=S)N1CCCCCC1)c1ccc2ccccc2n1 (stereo not given) | active: 8.91 µM | –
10 | CCCNC(=O)c1ccc(CN2CCc3ccccc3C2)cc1 | – | inactive: 7.48%
11 | O=C(CN1C(=O)c2ccccc2S1(=O)=O)c1ccc(O)c(O)c1 | inconclusive: 6.31 µM [inhibitor, partial curve] | –
12 | Cc1ccc(N=Cc2ccc(O)cc2O)cc1F | inconclusive: 39.8 µM [inhibitor, partial curve, poor fit] | –
13 | Cc1cc(Nc2ccc3ccccc3c2)n2ncnc2n1 | – | inactive: 52.6%
14 | Clc1ccc(SCCOCCN2CCc3ccccc3C2)cc1 | inconclusive: 14.1 µM [inhibitor, partial curve] | –
15 | O=C(CNc1cc([N+](=O)[O-])ccc1NCCO)Nc1cccc(S(=O)(=O)N2CCCCC2)c1 | – | inactive: -19.8%
16 | COc1ccc(CCNc2nc(C)nc3c2oc2ccccc23)cc1OC | inconclusive: 25.1 µM [inhibitor, single point] | –
17 | CC1=NN(C(=O)Cn2nc([N+](=O)[O-])c(Br)c2C)C(O)(C(F)(F)F)C1 (stereo not given) | – | inactive: 3.88%
18 | Oc1ccc(/C=N\Nc2nncc(-c3ccccc3)n2)cc1 | – | inactive: 5.32%
19 | Cc1ccc(S(=O)(=O)N2[C@@H](c3ccc(C(C)(C)C)cc3)C(C(=O)O)=CC[C@H]2c2ccc(C(C)C)cc2)cc1 | inconclusive: 39.8 µM [inhibitor, single point] | –
20 | O=CNc1cc(-c2cccc(O)c2)cn2c(-c3ccc(F)cc3)cnc12 | inconclusive: 28.2 µM [inhibitor, partial curve] | –
21 | CCc1nc2sc3ccccc3c(=O)c2c(=O)n1Cc1ccco1 | – | inactive: 116%
22 | Cc1[nH]nc2c1C(c1cnn(C)c1)C(C#N)=C(N)O2 (stereo not given) | inconclusive: 1.34 µM [inhibitor, partial curve, poor fit] | –
23 | COc1cc(/C=C/C(=O)c2ccc(NS(=O)(=O)c3ccc(C)cc3)cc2)cc(OC)c1O | inconclusive: 35.5 µM [inhibitor, single point] | –
24 | Cc1ccc(C(=O)CSc2nnc(-c3ccc4[nH]c(C)c(C)c4c3)o2)cc1C | inconclusive: 22.4 µM [inhibitor, single point] | –

Row | Compound | Potency | activity change, negative = inhibition
25 | CCSC(=O)N=Nc1ccc(O)cc1 | inconclusive: 20 µM [inhibitor, partial curve, poor fit] | –
26 | COc1cc(C)c(C(=O)CC(=O)c2c(C)cc(OC)cc2C)c(C)c1 | active: 25.1 µM | –
27 | CN(C)c1nc(N/N=C\c2ccc(Cl)c([N+](=O)[O-])c2)nc(Nc2ccc(F)cc2)n1 | inconclusive: 31.6 µM [inhibitor, single point] | –
28 | COc1cccc(-c2nc(SCC(=O)Nc3ccc4c(c3)OCO4)c(-c3ccccc3)[nH]2)c1 | inconclusive: 22.4 µM [inhibitor, single point] | –
29 | CC(C)CC(=O)NC(c1ccccc1Cl)c1c(O)ccc2ccccc12 (stereo not given) | inconclusive: 3.16 µM [inhibitor, partial curve, poor fit] | –
30 | COc1ccc(CCC(=O)NC2CCCCC2)cc1 | – | inactive: -2.91%
31 | CC(C)c1ccc(NC(=O)Nc2nc(CN)cs2)cc1 | – | inactive: 5.37%
32 | CC(=O)N1N=C(c2c(-c3ccccc3)c3cc(Br)ccc3[nH]c2=O)CC1c1ccco1 (stereo not given) | inconclusive: 22.4 µM [inhibitor, single point] | –
33 | Nc1ccn([C@@H]2O[C@H](CO)[C@@H](O)[C@@H]2O)c(=O)n1 | inconclusive: 3.55 µM [inhibitor, full curve] | –
34 | Cc1ccc(-c2nc(C(=O)NCCCN3CCOCC3)cc3c2[nH]c2ccccc23)cc1 | inconclusive: 35.5 µM [inhibitor, single point] | –
35 | Clc1ccc(CSc2nnc(-c3ccccn3)n2Cc2ccco2)cc1Cl | inconclusive: 25.1 µM [inhibitor, single point] | –
36 | CCCC(=O)NC(c1ccccc1)c1ccc2cccnc2c1O (stereo not given) | active: 14.1 µM | –
37 | CC(O)(c1cccc(F)c1)c1nc(-c2ccccc2)cs1 (stereo not given) | – | inactive: -7.64%
38 | C=C(c1ccccc1C)[n+]1ccccc1 | – | inactive: 0.726%
39 | COc1ccc(S(=O)(=O)N2CCCCCC2)cc1C(=O)N(C)CC(=O)Nc1ccc(Cl)c(Cl)c1 | inconclusive: 3.16 µM [inhibitor, partial curve] | –
40 | C=CCn1c(SCC(=O)Nc2ccc(C(=O)O)cc2)nc2scc(-c3ccccc3)c2c1=O | – | inactive: -23%
41 | NC(=O)/C=C/C(=O)Nc1ccc(Cl)cc1 | inconclusive: 37.7 µM [inhibitor, single point] | –
42 | O=C(Cn1ncc2c1-c1ccccc1OC2)N1CCc2ccccc21 | inconclusive: 0.844 µM [inhibitor, partial curve, poor fit] | –
43 | CCN(CC)S(=O)(=O)c1ccc(NC(=O)c2ccc(CN3CCOCC3)cc2)cc1 | inconclusive: 15.8 µM [inhibitor, partial curve, poor fit] | –
44 | Cn1cc(-c2ccncc2)c(-c2ccc(OCc3ccc4ccccc4n3)cc2)n1 | inconclusive: 17.2 µM [inhibitor, partial curve] | –
45 | O=C(CSc1nc(-c2cccs2)cc(C(F)(F)F)n1)Nc1cc(OCC(F)(F)F)cc([N+](=O)[O-])c1 | inconclusive: 14.1 µM [inhibitor, partial curve] | –
46 | CCc1cc(=O)n2[nH]c(-c3ccccc3)c(-c3ccccc3)c2n1 | inconclusive: 14.1 µM [inhibitor, partial curve, poor fit] | –
47 | CNC(=O)OCc1nc(SC2CCCCO2)n(C)c1COC(=O)NC (stereo not given) | – | inactive: 9.26%
48 | Cc1ccccc1CSc1cn(CCNC(=O)c2cccs2)c2ccccc12 | inconclusive: 31.6 µM [inhibitor, single point] | –

Row | Compound | Potency | activity change, negative = inhibition
49 | CCC(=O)N1CCN(c2ccc(NC(=O)c3ccc4c(c3)OCO4)cc2)CC1 | inconclusive: 28.2 µM [inhibitor, partial curve, poor fit] | –
50 | O=C(O)C(c1ccccc1)N1C(=O)/C(=C/c2cccs2)SC1=S (stereo not given) | – | inactive: 4.9%
51 | O=C(Nc1cccnc1)C1Cc2c(-c3ccccc3Oc3ccccc3)ccnc2O1 (stereo not given) | inconclusive: 31.6 µM [inhibitor, partial curve, poor fit] | –
52 | COc1cc(C(=O)O/N=C2\C=CC(=O)C=C2C)cc(OC)c1OC | – | inactive: -8.5%
53 | CCOC(=O)c1c(C)oc2nc(C)nc(Nc3cccc(OC)c3)c12 | – | inactive: 13.4%
54 | COc1ccccc1NC(=S)NNC(=O)c1nn(C)c(C)c1Br | – | inactive: 22.3%
55 | COc1ccc2ccc(O)c(CN(C)CC(=O)Nc3ccccc3C(F)(F)F)c2c1 | – | inactive: 2.7%
56 | O=C(Nc1cccc(NC(=O)N2CCN(c3ccccc3)CC2)c1)N1CCN(c2ccccc2)CC1 | inconclusive: 28.2 µM [inhibitor, partial curve, poor fit] | –
57 | CCn1c(SCC(=O)Nc2ccccc2OC)nc2ccccc2c1=O | inconclusive: 22.4 µM [inhibitor, partial curve, poor fit] | –
58 | COc1ccc(CN2CN(C(C)C)CSC2=S)cc1 | inconclusive: 39.8 µM [inhibitor, single point] | –
59 | CC(=O)c1ccc(NC(=O)CSc2nc(=O)cc(N)n2-c2ccccc2)cc1 | – | inactive: 45.2%
60 | COc1ccc2c(c1)CC(N1CCN(C)CC1)c1cc(OC)ccc1S2 (stereo not given) | active: 28.2 µM | –
61 | CCOC(=O)C1=C(c2ccccc2)NC(N)=NC1c1ccc(OCc2ccc(C(=O)OC)cc2)cc1 (stereo not given) | active: 25.1 µM | –
62 | COc1ccc(-n2cc(CNC3CCN(C)CC3)c(-c3cccc(F)c3)n2)cc1 | inconclusive: 7.94 µM [inhibitor, partial curve, poor fit] | –
63 | O=C(/C=C/c1cccc(Cl)c1)c1ccc([N+](=O)[O-])o1 | active: 4.47 µM | –
64 | CCCn1c(=O)c(C(=O)NNS(=O)(=O)c2ccc(C)cc2)c(O)c2ccccc21 | – | inactive: -12.6%
65 | Cc1ccc(-c2nc3ccc(C)cn3c2Cc2cccc(F)c2)cc1 | inconclusive: 39.8 µM [inhibitor, single point] | –
66 | O=C(/C=C/c1ccccc1)NC(=S)NNC(=O)c1cnccn1 | active: 14.1 µM | –
67 | N/C(=N\c1nc2ccccc2o1)NC(=O)c1ccc([N+](=O)[O-])cc1 | inconclusive: 10 µM [inhibitor, partial curve] | –
68 | Cc1c(CCOC(=O)CC23CC4CC(CC(C)(C4)C2)C3)sc[n+]1CC(=O)c1ccccc1 | inconclusive: 39.8 µM [inhibitor, single point] | –
69 | CCOC(=O)c1sc(NC(=O)CSc2nnnn2-c2ccccc2)c(C(=O)OCC)c1C | inconclusive: 35.5 µM [inhibitor, partial curve, poor fit] | –
70 | C=CCNc1oc(-c2ccc(-c3ccccc3)cc2)nc1C#N | inconclusive: 22.4 µM [inhibitor, single point] | –
